# Assay results from the supplement of paper PMC11417369.
# ± gives the standard deviation of the averaged measurements. This is one part of the list.
# Test system: PfAP2-EXP AP2 domain (GST-tagged)
# Assay: gcPBM binding intensity (ln(normalized median fluorescence intensity)); higher = stronger DNA binding
# How it was run: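 Using an Agilent 4 × 180k array, primer-extended double-stranded 36-bp intergenic genomic probes and negative controls were exposed for 1 h to GST-fused P. falciparum DNA-binding domains expressed in E. coli. Binding was carried out in 1× PBS with 1% milk, 0.2 mg/ml BSA, 0.5% salmon testes DNA and 0.03% Triton X-100, and protein was detected with Alexa488 anti-GST antibody and a 488 nm scan. Binding intensity is the highest Masliner-normalised natural-log median intensity across replicate spots of either probe orientation.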
row,Sequence,gcPBM binding intensity (ln)
1,TTTTTCTTTTTTTCTTTTTTTATAAAACTTAATTGT [CACACA_negctrl_site384],8.49 ± 0.47
2,TATTAATTATATTTATGTACATAATCATATTATTAT [XGTACX_site7938],8.55 ± 0.35
3,AGAAATATATATATATATATATATATATATATATAT [TGCATGCA_negctrl_site375],10 ± 0.45
4,TTCATTTTTTGCTTTCAACACACATACAATATATAT [CACACA_site9369],8.81 ± 0.39
5,AGTAACAAAAGAAAAAAATATGCAAACATATATATA [XGTACX_negctrl_site468],8.5 ± 0.42
6,AAAAAAAAAAAACACACACACACACCCACCCATACA [CACACA_site2859],8.82 ± 0.6
7,TTTACAACATCAAAATGTACGCATTATTATTATTAA [XGTACX_site3017],8.31 ± 0.32
8,TATTTAAAAAATAATACACACATAATATAACAAAAT [CACACA_site3174],8.88 ± 0.46
9,TGTGTATAAATATACACACACATATAAATATTTTAA [CACACA_site7005],8.27 ± 0.32
10,ACATATAATATAAATTGTACATATAAATATATTATT [XGTACX_site4268],8.38 ± 0.32
11,TCATATATTTTATACATACACACATATATATATTTT [CACACA_site3941],8.62 ± 0.53
12,ACGTTATACACAGTACGTACATAACTATCTAAATGT [XGTACX_site5068],8.59 ± 0.34
13,TGGAGGTCAGTTCACAGTACCCAGGAAATCTGCGGA [XGTACX_site2556],8.44 ± 0.38
14,TATAACATAGGACACACACACATACATACACAAAAA [CACACA_site5062],8.94 ± 0.35
15,ATGCATAATATACTCTTACACACCATTTCTATATAC [CACACA_site1461],8.84 ± 0.45
16,TTCACTTTTTTTTTTTTTTTTTTTTTTTTTTTTATT [GTGCAC_negctrl_site350],8.07 ± 0.56
17,TATTTTTATTTATAACGTACGAAAAATGTATATAAT [XGTACX_site703],8.79 ± 0.29
18,GGTGTATGTTAAAGGAGTACATATATATATATATAT [XGTACX_site7727],10.2 ± 0.25
19,CATACACATTTCATATGTACATAGATTGAAGGGAAG [XGTACX_site116],8.7 ± 0.37
20,TTTTATATATAATTCACACAAAAAAGATACATAAGA [CACACA_site5332],8.79 ± 0.4
21,ATTTTTTTTTTTTTTTTTTTTTTTTTTGAATTCACA [CACACA_negctrl_site982],8.09 ± 0.49
22,TATATAAAAATATGTTGTACGCATTTATAAATATAT [XGTACX_site3758],8.43 ± 0.39

row,Sequence,gcPBM binding intensity (ln)
1,ACAACACATATTCATCGTACATGTATTAGGAAGACA [XGTACX_site1859],8.75 ± 0.48
2,TAAGCAAAAATAATTACACACAAATTTATAAAAAAT [CACACA_site3377],8.49 ± 0.65
3,ATAAAAATATAATTGAGTACATATGAATAGTCCTAT [XGTACX_site6281],8.34 ± 0.33
4,ATTTTGTTTTTTTTTGCACACCATAAGGAGTGTAGG [CACACA_site1414],8.84 ± 0.41
5,AATAGTTCTTGAACGTGTACATAAAATATAATTTAC [XGTACX_site11],8.53 ± 0.29
6,TTCTATTTTTTAAAAGTGCATATTATAAATATATAT,8.69 ± 0.13
7,GAAATCTAAATAGAAACACACATATATAAATAAATA [CACACA_site7762],8.46 ± 0.36
8,GAATAATCCAAACACACACACACACCCGAATAAATA [CACACA_site482],8.79 ± 0.51
9,TAGTATTTATATGTTATATATATAAAATAATACAGT [XGTACX_negctrl_site571],8.56 ± 0.47
10,TATATAGAATTATATGCATGTTCAAAAAAATACAAC [TGCATGCA_site431],8.72 ± 0.18
11,ATATCTAATAAAAATACACACACATATGATTTGTGA [CACACA_site8558],8.1 ± 0.4
12,ATATAAATATATATATGTACATAATATATTATGTTT [XGTACX_site2806],8.48 ± 0.35
13,AATTTAACCACTAAAAGTACACACATATATACATAT [XGTACX_site8352],8.675 ± 0.064
14,GGACACCTTCAAAACACACATACAAATAAATAGAAA [CACACA_site3305],8.74 ± 0.45
15,AGGATAATATACAAAAGTACATAAAACTAAAAAAAC [XGTACX_site605],9.01 ± 0.24
16,AACATATATTTTGAAACACACACATATATAATATAC [CACACA_site8301],8.74 ± 0.42
17,AAAGAAAGAAAGAATACACACACACCGATATATATA [CACACA_site9246],8.88 ± 0.45
18,TCCTTTTTACTACTAGTGCATTATTTACAAGGTCCG [GTGCAC_site9441],8.995 ± 0.049
19,AATGTGTATATATATACACACACATATATATATTTT [CACACA_site8596],8.61 ± 0.43
20,ATATATATAAAATATTATATTAAAAAAAATAAAATA [GTGCAC_negctrl_site87],8.15 ± 0.45
21,TAGTTTTTTATATATTGTACTTAGAATATATTATAT [XGTACX_site3662],8.37 ± 0.33
22,TTTTTAATTTACTGTCATAGGTACCTTAACTTATCA [CACACA_negctrl_site1664],8.72 ± 0.49

row,Sequence,gcPBM binding intensity (ln)
1,TGAATAAAGAAACACACACACATATATATATATGTA [CACACA_site17],8.52 ± 0.44
2,TATTAATAATTTTCATGTACATATGTATTTGTAATA [XGTACX_site858],8.55 ± 0.31
3,ATATAATAAATGTCATGTACATACAACATTTTAACT [XGTACX_site7517],8.43 ± 0.35
4,TACATATACATATTGTGTACATAATAATTATTTATA [XGTACX_site7884],8.53 ± 0.32
5,TACTTATGTTCGCACACATGCAAATTAAAAAAAAAA [TGCATGCA_site1023],8.69 ± 0.42
6,TTAATTAAGAAACACACACACATATATATATATATT [CACACA_site2290],8.67 ± 0.42
7,TTATATATATGACTTTGTACATATACATATTTTTTA [XGTACX_site4669],8.21 ± 0.39
8,GTATATTTTATTTTATGTACATATTCATTTTTTATT [XGTACX_site561],9.18 ± 0.28
9,TCTCTTTTTCGTTCATGTACAAATAAATAAAAATAT [XGTACX_site6558],8.69 ± 0.31
10,TATTATATATATGCACGTACAAAAATAATAAAGGTA [XGTACX_site3506],8.98 ± 0.16
11,GTGGATATATGTATATGTACATATGTATGTATATAT [XGTACX_site2412],8.74 ± 0.43
12,ATTTTTTTACTGGATCCATATTTGCTTTTTTATTTA [CACACA_negctrl_site1108],9.11 ± 0.53
13,TTTAAAATTTAATTTTGTACATATACCAATTTTATT [XGTACX_site448],8.16 ± 0.057
14,ATATAAATATGAAAAAGTACAAGCCATCAAGAAATC [XGTACX_site8140],8.82 ± 0.46
15,ATATAATGTTAGGGTAGAGGAAGTAACTAATATAAA [CACACA_negctrl_site1153],8.74 ± 0.49
16,AATTTTTTATTCTTTGCATGTCATCATATATAATAT [TGCATGCA_site549],9.15 ± 0.35
17,ATATAATATATGTTATGTACATAGTTTTTATTGTTC [XGTACX_site7438],8.57 ± 0.28
18,AATATATAATCAGATGAATTTTTTTTTTTTTTTTCA [CACACA_negctrl_site534],7.93 ± 0.49
19,AATTAGCATAAATGGGTGCTACACAAAAATGCATGT [GTGCAC_site9640],8.91 ± 0.33
20,TATAAATATTATAATTGTACATATTATAAAAATTTT [XGTACX_site2719],8.32 ± 0.39
21,TGTGTATAAAAAAAGTGTACACAAAGTAAGACTTTA [XGTACX_site3759],8.84 ± 0.33
22,AGCAACTAAAAAGGATACCCCATTAAAAAAAAATTA [XGTACX_negctrl_site489],8.35 ± 0.55

row,Sequence,gcPBM binding intensity (ln)
1,TACCAAAAAACGGCACGCATATGTATAAGAATATGT [XGTACX_negctrl_site470],8.79 ± 0.67
2,AAATATATAAAAGTATGTACATATGAAAAATATATA [XGTACX_site6165],8.94 ± 0.42
3,TTATAAAGAATTAGGAGTACAAATGCATATATAATA [XGTACX_site6580],8.9 ± 0.42
4,TTATATAACATAACGATGTTTCAAAACATATTGTAT [CACACA_negctrl_site997],8.44 ± 0.52
5,ATTTTTTTGTATATATATGACTGGGGATATAATCAA [GTGCAC_negctrl_site274],8.77 ± 0.6
6,ATGAAAAAAAAAAAAAAAAAAAAAAAAAAAAAAATA [CACACA_negctrl_site1083],7.89 ± 0.54
7,TATAAAAAAAAAAAAAAAAAAAAAAATATATATATA [CACACA_negctrl_site817],9.74 ± 0.25
8,TATTATTTTTCATATGCATGCAAAAATAAAAAAATA [TGCATGCA_site350],9.63 ± 0.35
9,AAAAAAAAAAAAAATTGTACTTAAATATATATATAT [XGTACX_site7604],9.9 ± 0.45
10,AAATTAAAATAAAATAGTACATATATTTATATTTTT [XGTACX_site1687],8.16 ± 0.14
11,ACATACATATATTTATGTACATATATATTTATGATT [XGTACX_site6485],8.55 ± 0.33
12,AAAAAAAGATTATACACACACATATATAAACATACA [CACACA_site4553],8.55 ± 0.61
13,AATTTATATTTATGTGCATGTAATAACTGTATATAA [TGCATGCA_site349],8.75 ± 0.2
14,TTTTGGTGTATAGTATTAATATAAAATAATTATATT [CACACA_negctrl_site47],8.45 ± 0.35
15,ATTTTTTTTTCTTGTACACACTATTTTATAATTTTA [CACACA_site6102],9.16 ± 0.44
16,TAAACATTCTTATATAGTACCCATATTAAAATATAC [XGTACX_site8014],8.38 ± 0.28
17,TTAGCTTATCATTACTGTACTTTATTCATATATATG [XGTACX_site8008],8.91 ± 0.43
18,ATAAGCATACATATTACACACATATAATATATATAT [CACACA_site2487],9.17 ± 0.085
19,TACATATATATATATGAACACACAAAAAGAATATTT [CACACA_site8421],8.72 ± 0.68
20,TTTTATGAGAAACACACACACAAAAAAAAAAAAAAA [CACACA_site4129],8.28 ± 0.58
21,AGTGGATAAATTTATTCACACATTTTTTTTTTTTTT [CACACA_site5914],8.33 ± 0.24
